Measured values published in patent US11000038B2, “Pyridone compounds and agricultural and horticultural fungicides containing the same as active ingredients” (priority 2017, dated 2021).

Experiments:
[1] = test system: cabbage Alternaria sooty spot fungi (Alternaia brassicicola); experiment: Test Example C: cabbage Alternaria sooty spot, spray treatment of cabbage plants; assay type: in vivo; settings: spray treatment of cabbage plants; for Test C control value class (cabbage Alternaria sooty spot): control value=100{1-(n/3)}; for Test C control value: cabbage Alternaria sooty spot
Text: [Test Example C] Cabbage Alternaria Sooty Spot
Test plants (cabbage variety: Shikidori) were cultivated until the cotyledons extended after the sowing of seeds.
<Control Value> Control value=100{1−(n/3)}

[2] = test system: wheat brown rust fungi (Puccinia recondita); experiment: Test Example E: wheat brown rust, spray treatment of wheat plants; assay type: in vivo; settings: spray treatment of wheat plants; for Test E control value class (wheat brown rust): control value=100{1-(n/3)}; for Test E control value: wheat brown rust
[3] = test system: gray mold fungi (Botrytis cinerea); experiment: Test Example B: tomato gray mold, spray treatment of tomato plants; settings: spray treatment of tomato plants; for Test B control value class (tomato gray mold): control value=100{1-(n/3)}; for Test B control value: tomato gray mold
[4] = test system: grape downy mildew fungus (Plasmopara viticola); experiment: Test Example G: grape downy mildew, spray treatment of grape plants; settings: for Test G control value class (grape downy mildew): 250 ppm spray, 2.5 ml/pot, grape Neomuscat, 7 to 10 days from inoculation; for Test G control value: grape downy mildew, 250 ppm spray (2.5 ml/pot), 7 to 10 days after inoculation
[5] = test system: barley powdery mildew fungi (Blumeria graminis f. sp. hordei); experiment: Test Example D: barley powdery mildew, spray treatment of barley plants; settings: spray treatment of barley plants; for Test D control value class (barley powdery mildew): control value=100{1-(n/3)}; for Test D control value: barley powdery mildew

SMILES | Test C control value class (cabbage Alternaria sooty spot) [1] | Test E control value class (wheat brown rust) [2] | Test B control value class (tomato gray mold) [3] | Test G control value class (grape downy mildew) [4] | Test D control value class (barley powdery mildew) [5] | Test C control value [1] | Test E control value [2] | Test B control value [3] | Test G control value [4] | Test D control value [5]
CCOc1cc(F)c(-c2c(C)c(=O)c(C)cn2-c2ccccc2C)c(F)c1 [Compound 176] | H (H shows the control value of more than 50%) | H (H shows the control value of more than 50%) | H (H shows the control value of more than 50%) | H (H shows the control value of more than 50%) | H (H shows the control value of more than 50%) |  |  |  |  | 
Cc1ccc(F)cc1-n1cc(Br)c(=O)c(Cl)c1-c1c(F)cc(F)cc1F [Compound 177] | H (H shows the control value of more than 50%) | H (H shows the control value of more than 50%) | H (H shows the control value of more than 50%) | L (L shows the control value of 50% or less) | L (L shows the control value of 50% or less) |  |  |  |  | 
Cc1ccc(F)cc1-n1cc(Br)c(=O)c(Br)c1-c1c(F)cc(F)cc1F [Compound 178] | H (H shows the control value of more than 50%) | H (H shows the control value of more than 50%) | H (H shows the control value of more than 50%) | H (H shows the control value of more than 50%) | L (L shows the control value of 50% or less) |  |  |  |  | 
Cc1ccc(F)cc1-n1cc(Cl)c(=O)c(Br)c1-c1c(F)cc(F)cc1F [Compound 179] | H (H shows the control value of more than 50%) | H (H shows the control value of more than 50%) | H (H shows the control value of more than 50%) | L (L shows the control value of 50% or less) | H (H shows the control value of more than 50%) |  |  |  |  | 
COc1cc(F)c(-c2c(Cl)c(=O)c(Br)cn2-c2ccccc2C)c(F)c1 [Compound 181] | H (H shows the control value of more than 50%) | H (H shows the control value of more than 50%) | H (H shows the control value of more than 50%) | L (L shows the control value of 50% or less) | H (H shows the control value of more than 50%) |  |  |  |  | 
Cc1ccccc1-n1cc(C(F)(F)F)c(=O)c(Cl)c1-c1c(F)cc(F)cc1F [Compound 182] | L (L shows the control value of 50% or less) | H (H shows the control value of more than 50%) | H (H shows the control value of more than 50%) | L (L shows the control value of 50% or less) | H (H shows the control value of more than 50%) |  |  |  |  | 
Cc1ccccc1-n1cc(C(F)(F)F)c(=O)c(C)c1-c1c(F)cc(F)cc1F [Compound 184] | L (L shows the control value of 50% or less) | H (H shows the control value of more than 50%) | H (H shows the control value of more than 50%) | L (L shows the control value of 50% or less) | H (H shows the control value of more than 50%) |  |  |  |  | 
Cc1c(F)cccc1-n1cc(Br)c(=O)c(Br)c1-c1c(F)cc(F)cc1F [Compound 186] |  |  |  |  |  | H (H shows the control value of more than 50%) | H (H shows the control value of more than 50%) | H (H shows the control value of more than 50%) | L (L shows the control value of 50% or less) | H (H shows the control value of more than 50%)
Cc1c(F)cccc1-n1cc(Br)c(=O)c(Cl)c1-c1c(F)cc(F)cc1F [Compound 187] |  |  |  |  |  | H (H shows the control value of more than 50%) | H (H shows the control value of more than 50%) | H (H shows the control value of more than 50%) | L (L shows the control value of 50% or less) | H (H shows the control value of more than 50%)
Cc1c(F)cccc1-n1cc(Cl)c(=O)c(Br)c1-c1c(F)cc(F)cc1F [Compound 189] |  |  |  |  |  | H (H shows the control value of more than 50%) | H (H shows the control value of more than 50%) | H (H shows the control value of more than 50%) | L (L shows the control value of 50% or less) | H (H shows the control value of more than 50%)
O=c1c(Br)cn(-c2ccccc2C(F)(F)F)c(-c2c(F)cc(F)cc2F)c1Br [Compound 191] |  |  |  |  |  | H (H shows the control value of more than 50%) | H (H shows the control value of more than 50%) | H (H shows the control value of more than 50%) | L (L shows the control value of 50% or less) | L (L shows the control value of 50% or less)
O=c1c(Br)cn(-c2ccccc2C(F)(F)F)c(-c2c(F)cc(F)cc2F)c1Cl [Compound 192] |  |  |  |  |  | H (H shows the control value of more than 50%) | H (H shows the control value of more than 50%) | H (H shows the control value of more than 50%) | L (L shows the control value of 50% or less) | L (L shows the control value of 50% or less)
CC(C)(C)Cn1cc(Cl)c(=O)c(Cl)c1-c1c(F)cc(F)cc1F [Compound 193] |  |  |  |  |  | H (H shows the control value of more than 50%) | H (H shows the control value of more than 50%) | H (H shows the control value of more than 50%) | L (L shows the control value of 50% or less) | H (H shows the control value of more than 50%)
CC(C)(C)Cn1cc(Cl)c(=O)c(Br)c1-c1c(F)cc(F)cc1F [Compound 194] |  |  |  |  |  | H (H shows the control value of more than 50%) | H (H shows the control value of more than 50%) | H (H shows the control value of more than 50%) | L (L shows the control value of 50% or less) | L (L shows the control value of 50% or less)
CC(C)(C)Cn1cc(Br)c(=O)c(Cl)c1-c1c(F)cc(F)cc1F [Compound 195] |  |  |  |  |  | H (H shows the control value of more than 50%) | H (H shows the control value of more than 50%) | H (H shows the control value of more than 50%) | H (H shows the control value of more than 50%) | H (H shows the control value of more than 50%)
CC(C)(C)Cn1cc(Br)c(=O)c(Br)c1-c1c(F)cc(F)cc1F [Compound 196] |  |  |  |  |  | H (H shows the control value of more than 50%) | H (H shows the control value of more than 50%) | H (H shows the control value of more than 50%) | L (L shows the control value of 50% or less) | H (H shows the control value of more than 50%)
Cc1ccccc1-n1cc(C)c(=O)c(Br)c1-c1c(F)cc(F)cc1F [Compound 197] |  |  |  |  |  | H (H shows the control value of more than 50%) | H (H shows the control value of more than 50%) | H (H shows the control value of more than 50%) | H (H shows the control value of more than 50%) | H (H shows the control value of more than 50%)
